# Source: the supplement of paper PMC10338343
# ± gives the standard deviation. Over roughly 6,600 sequences, “pre-steady-state target cleavage rate” has its median near 0.07; the highest 2% begin near 0.72. The list shows a part of the results, in another mix than the full data.
# System: MIWI (PIWIL1) piRISC loaded with Kctd7 piRNA (30 nt)
# Experiment: pre-steady-state target cleavage rate (min^-1); MIWI and MILI are mouse PIWI proteins and EfPiwi is from a freshwater sponge; tags in brackets are library labels; higher = faster piRNA-guided slicing of the target
# Details: guide: Kctd7 piRNA 5'p-UGUUAAUCUCUCAGAGAAGGUGACAGUGAU; auxiliary factor: 500 nM mouse GTSF1
# Outline: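 Reactions were run for 0–8 or 0–960 min at 33 °C in HEPES–potassium acetate buffer, combining 1 nM active affinity-purified piRISC with one synthetic guide, […] transcribed, DNA-blocked target RNA library and, in some cases, 500 nM GTSF1 partner protein. Sequencing of uncleaved targets followed, with normalisation to depth and to weakly complementary targets. Three trials were pooled, k3 was capped at 0.0001 min^-1, and the pre-steady-state cleavage rate was taken from a burst-and-steady-state fit.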
# 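Further: 1 nM active piRISC with 0.1 nM target library at 33 °C single turnover.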
row,Sequence,pre-steady-state target cleavage rate
1,UAGUGACUCACGUUCUCAGAGAGAUUAACA,0.0234 ± 0.005
2,UAGACUCUCACCUUGUCUGAGAGAUUAACA,0.237 ± 0.027
3,UAGUGACUCACCAUCUCUGAGAGAUUAACA,0.306 ± 0.025
4,AUCAGUGUGACCUUCUCUGAGAGAUUAACA,0.562 ± 0.025
5,UAGUCUGUCACGUUCUCUGAGAGAUUAACA,0.692 ± 0.033
6,UAGUGUGUCACCUUCUCUCUCUCUAAUUGA [g13:g25:cont:t1A],0.00462 ± 0.0042
7,UACACUCACACCUUCUCUGAGAGAUUUUGA,0.0434 ± 0.014
8,UAGACUGUCUCCUUCUCUGACAGAUUAACA,0.198 ± 0.023
9,UAGACUGUCACCUUCUCUGAGAGAUUAGACA,0.315 ± 0.035
10,UAGUGACAGUGCUUGUCUGAGAGAUUAACA,0.008 ± 0.0037
11,UAGUGUUUCACCUUCUCUGAGAGAUUAACA,0.45 ± 0.025
12,UACUGUGUCACCUUCUCUGAGAGAUUAUGA,0.0969 ± 0.015
13,UACUCUGUCACCUUCUCUGAGUGAUUAACA,0.0543 ± 0.012
14,UAGUGUGUCACCUUCUCUGAGAGAUUAUGA,0.109 ± 0.023
15,UAGUGAGUCACCUUCUCUGAGUCUUUAACA,0.0098 ± 0.005
16,UAGUGACUCACCUUCUCUGAGAGAAAAUGA,0.00519 ± 0.0033
17,AUCAGUGUCACGUUCUCUGAGAGAUUAACA,0.676 ± 0.036
18,UAGUGAGUCACCUUGUCUGAGAGAUAAACA,0.0582 ± 0.013
19,UAGUGUGACACCUUCUCUGAGAGAUAAACA,0.28 ± 0.039
20,UAGUGUGUGACCUUCUCUGAGAGAAUAACA,0.211 ± 0.035
21,UAGAUCUGUCACCUUCUCUGAGAGAUUAACA,0.621 ± 0.03
22,UAGUCUGUCACCUUCUCUGAGAGAUUUAACA,0.39 ± 0.038
23,UAGUCUGUCACCUUCUCUCAGAGAUUAUCA,0.0565 ± 0.0084
24,UAGUGACAGUCCUUCUCCGAGAGAUUAACA,0.0215 ± 0.0057

row,Sequence,pre-steady-state target cleavage rate
1,AUCUCUGUCACCUUCUCUGACAGAUUAACA,0.314 ± 0.025
2,UUCACUGUCACCAUCUCUGAGAGAUUAUGA,0.0549 ± 0.012
3,UAGUGAGUCAGCUUCUCUGAGAGAUUUACA,0.249 ± 0.032
4,UAGUGAGUCACGUUCUCUGACAGAUUAACA,0.179 ± 0.025
5,AUCACUGUCACCAUCUCUGAGUGAUUAACA,0.0284 ± 0.0055
6,UUCACUGUCACCUUCUCUCAGUGAUUAACA,0.00917 ± 0.0035
7,AUCACAGUCACCUUCUCUGACAGAUUAACA,0.599 ± 0.037
8,UUCACUGUCACCUUCUCUGAGAGAUUAAAA,0.198 ± 0.028
9,AUCACUGUCACCUUCUCUGUCUGAUUUUGA,0.0128 ± 0.0051
10,UAGACUGUCACGUUCUCUGAGAGAUUAUGA,0.0108 ± 0.0035
11,UAGUGAGUGCACCUUCUCUGAGAGAUUAACA,0.585 ± 0.048
12,UAGUCUGUCACGUUCUCUGUGAGAUUAACA,0.214 ± 0.0097
13,UUCACUGUCACCUUCUCUCAGAGAUUAUCA,0.0615 ± 0.011
14,UAGUCUGUCACCUUCUCACAGAGAUUAACA,0.0188 ± 0.0059
15,UAGUGACACACCUUCUCUGACUCAUUAUGA,< 0.0001
16,UACUCUGUCACCUUCACUGAGAGAUUAACA,0.505 ± 0.028
17,UUCAGUGUCACCUUGUCUGAGAGAUUAACA,0.2 ± 0.029
18,UAGACUGUCACCUUCUCGAGAGAUUAACA,0.058 ± 0.0086
19,AUCACUCUGACCUUCUCUGAGAGAUUAACA,0.488 ± 0.026
20,UAGUGACUCACCUUCAUCUGAGAGAUUAACA,0.014 ± 0.0037
21,UAGUGACACAUCUUCUCUGAGAGAUUAACA,0.618 ± 0.035
22,AUCACUUUCACCUUCUCUGAGAGAUUAACA,0.622 ± 0.027
23,UUCACUGUCACCUCUCUGAGAGAUUAACA,0.501 ± 0.037
24,UAGUGACAGUCCUGUCUCUGAGAGAUUAACA,0.0361 ± 0.0059

row,Sequence,pre-steady-state target cleavage rate
1,AUCACUGUCACCUUCUCUGAGAGUAUAACA,0.136 ± 0.024
2,UUCACUGUCAGCUUCUCUGAGACAUUAACA,0.0132 ± 0.0026
3,UAGUGACAGUGCUUCUCUGAGAGAUUAAACA,0.0056 ± 0.0028
4,UAGUCUGCACCUUCUCUGAGAGAUUAACA,0.608 ± 0.036
5,UAGUGACAGUCGUUCUCUGAGAGAUUAACA,0.00753 ± 0.0037
6,UUCACUGUCACCUUCUCUGAGGAUUAACA,0.114 ± 0.029
7,UAGACUGUCUCCUUCUCUGAGAGAUUAAGA,0.207 ± 0.039
8,UUCACUGUCUCCUUCUCAGAGAGAUUAACA,0.316 ± 0.023
9,UAGACUGUCACCUACUCUGACAGAUUAACA,0.0552 ± 0.011
10,UAGUGACACACCUUCUCUCAGUGAUUAACA,0.00544 ± 0.0035
11,UUCACUGUCAGCUUCUGUGAGAGAUUAACA,0.516 ± 0.032
12,UACACAGUCACCUUCACUGAGAGAUUAACA,0.423 ± 0.027
13,UUCACUGUCACCUUCUCUGAGAGUAUAACA,0.192 ± 0.033
14,UAGACUGUCUCCUUCUCUGAGACAUUAACA,0.0295 ± 0.0057
15,AUCACAGUCACCUUCUCUCAGAGAUUAACA,0.139 ± 0.015
16,AUCACUGUCACCUUCUGUGAGUGAUUAACA,0.0242 ± 0.0069
17,UAGUGACAGACCUUCUCUGAGAGAUAUAACA,0.0271 ± 0.0091
18,UAGUGACAGACCUUCUGUGUGAGAUUAACA,0.00826 ± 0.0031
19,UAGUGACACACGUUCUCUGAGAGUUUAACA,0.0466 ± 0.0067
20,UUCACUGUCACCUUCUCAGAGAGAUUAACA,0.384 ± 0.024
21,AUCACUGUCACCUUCUCUGAGAGAUUGACA,0.448 ± 0.072
22,UAGUCUGUCACCUUCUCUGAGAGGAUUAACA,0.36 ± 0.037
23,UAGACUGUCCACCUUCUCUGAGAGAUUAACA,0.627 ± 0.063
24,UAGUCUGUCACCUUCACAGAGAGAUUAACA,0.0478 ± 0.0067
